# The other results are listed elsewhere or left out. Sequences were assembled here from the parent chain. Values near 0.05 are background.
# B1: TEV protease; numbered along this chain (parent)
# chain: MGESLFKGPRDYNPISSSICHLTNESDGHTTSLYGIGFGPFIITNKHLFRRNNGTLVVQSLHGVFKVKDTTTLQQHLVDGRDMIIIRMPKDFPPFPQKLKFREPQREERICLVTTNFQTKSMSSMVSDTSCTFPSGDGIFWKHWIQTKDGQCGSPLVSTRDGFIVGIHSASNFTNTNNYFTSVPKNFMELLTNQEAQQWVSGWRLNADSVLWGGHKVFMVKPEEPFQPVKEATQL
# Variants of: B1
# Experiment: raw area under fraction-flipped curve 0-4 h after induction (AUC4h, not background-subtracted), DNA-recorder readout of cleavage of the substrate (dimensionless); higher = more cleavage of the substrate by the protease variant
# Conditions: temperature: 34 °C; time window: 0-4 h after rhamnose induction
# 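Note: Bxb1 expression induced with 0.2% (w/v) L-rhamnose at OD600 near 0.5, cultures sampled hourly, flipped fraction per protease–substrate barcode pair counted by paired-end Illumina sequencing.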
Variant,area with substrate ENLYDQS,area with substrate ENLYEQS,area with substrate ENLYGQS,area with substrate ENLYHQS,area with substrate ENLYIQS,area with substrate ENLYKQS,area with substrate ENLYNQS,area with substrate ENLYPQS,area with substrate ENLYQQS,area with substrate ENLYRQS,area with substrate ENLYSQS,area with substrate ENLYVQS,area with substrate ENLYWQS,area with substrate ENLYYQS,area with substrate ENLYLQS,area with substrate ENLYMQS,area with substrate ENLYTQS
MGESLFKGPRDYNPISSSICHLTNESDGHTTSLYGIGFGPFIITNKHLFRRNNGTLVVQSLHGVFKVKDTTTLQQHLVDGRDMIIIRMPKDFPPFPQKLKFREPQREERICLVTTNFQTKSMSSMVSDTSCTFPSGDGIFWKHWIQTKDGQCGSPLVSTRDGFIVGIHSASNFTRTNNYFTSVPKNFMELLTNQEAQQWVSGWRLNADSVLWGGHKVFMVKPEEPFQPVKEATQL [N175R],0.0514,0.05,0.0531,0.0838,0.0891,0.0564,0.0826,0.0808,0.0697,0.0696,0.082,0.157,0.0806,0.0572,,,
MGESLFKGPRDYNPISSSICHLTNESDGHTTSLYGIGFGPFIITNKHLFRRNNGTLVVQSLHGVFKVKDTTTLQQHLVDGRDMIIIRMPKDFPPFPQKLKFREPQREERICLVTTNFQTKSMSSMVSDTSCTFPSGDGIFWKHWIQTKDGQCGSPLVSTRDGFIVGIHSASNFTNTNNYFTSVPKNFMELLTNQEAQQWVSGWRLNADFVLWGGHKVFMVKPEEPFQPVKEATQL [S209F],0.0604,0.0524,,0.0803,0.115,0.0704,0.066,0.0963,0.0632,0.0567,0.0885,0.0997,0.081,,0.0925,0.0993,0.0989
MGESLFKGPRDYNPISSSICHLTNESDGHTTSLYGIGFGPFIITNKHLFRRNNGTLVVQSLHGVFKVKDTTTLQQHLVDGRDMIIIRMPKDFPPFPQKLKFREPQREERICLVTTNFQTKSMSSMVSDTSCTFPSGDGIFWKHWIQTKDGQCGSPLVSTRDGFIVGIHSASNFPNTNNYFTSVPKNFMELLTNQEAQQWVSGWRLNADSVLWGGHKVFMVKPEEPFQPVKEATQL [T174P],0.0436,0.07,0.0663,,0.0612,,0.0541,,,0.0563,,0.084,,0.0597,,0.0813,
MGESLFKGPRDYNPISSSICHLTNESDGHTTSLYGIGFGPFIITNKHLFRRNNGTLVVQSLHGVFKVKDTTTLQQHLVDGRDMIIIRMPKDFPPFPQKLKFREPQREERICLVTTNFQTKSMSSMVSDTSCTFPSGDGIFWKHWIQTKDGQCGSPLVSTRDGFIVGIHSASNFTNTNNYFTSLPKNFMELLTNQEAQQWVSGWRLNADSVLWGGHKVFMVKPEEPFQPVKEATQL [V183L],0.056,0.0658,0.0639,,0.116,0.0596,0.0674,0.0501,,,,,,,,,0.0815
MGESLFKGPRDYNPISSSICHLTNESDGHTTSLYGIGFGPFIITNKHLFRRNNGTLVVQSLHGVFKVKDTTTLQQHLVDGRDMIIIRMPKDFPPFPQKLKFREPQREERICLVTTNFQTKSMSSMVSDTSCTFPSGDGIFWKHWIQTKDGQCGSPLVSTRDGFIVGIHSASNFTNTNNYFTSRPKNFMELLTNQEAQQWVSGWRLNADSVLWGGHKVFMVKPEEPFQPVKEATQL [V183R],0.0357,0.0542,0.0504,0.0505,0.0627,0.0456,0.0487,0.0441,0.063,,,,0.0557,,,0.0478,
MGESLFKGPRDYNPISSSICHLTNESDGHTTSLYGIGFGPFIITNKHLFRRNNGTLVVQSLHGVFKVKDTTTLQQHLVDGRDMIIIRMPKDFPPFPQKLKFREPQREERICLVTTNFQTKSMSSMVSDTSCTFPSGDGIFWKHWIQTKDGQCGSPLVSTRDGFIVGIHSASNFTNTNNYFTSVPKNFMELLTNLEAQQWVSGWRLNADSVLWGGHKVFMVKPEEPFQPVKEATQL [Q194L],0.0495,0.0257,0.089,0.0664,0.117,0.0593,0.0644,0.0667,0.0628,,0.0797,,0.0792,0.0659,0.0832,0.0766,
MGESLFKGPRDYNPISSSICHLTNESDGHTTSLYGIGFGPFIITNKHLFRRNNGTLVVQSLHGVFKVKDTTTLQQHLVDGRDMIIIRMPKDFPPFPQKLKFREPQREERICLVTTNFQTKSMSSMVSDTSCTFPSGDGIFWKHWIQTKDGQCGSPLVSTRDGFIVGIHSASNFTNTNNYGTSVPKNFMELLTNQEAQQWVSGWRLNADSVLWGGHKVFMVKPEEPFQPVKEATQL [F180G],0.0475,0.0581,0.0473,0.0523,0.0681,0.041,0.0638,0.0463,,0.0436,,,0.0739,,0.0452,0.0615,
MGESLFKGPRDYNPISSSICHLTNESDGHTTSLYGIGFGPFIITNKHLFRRNNGTLVVQSLHGVFKVKDTTTLQQHLVDGRDMIIIRMPKDFPPFPQKLKFREPQREERICLVTTNFQTKSMSSMVSDTSCTFPSGDGIFWKHWIQTKDGQCGSPLVSTRDGFIVGIHSASNFTNTNNYWTSVPKNFMELLTNQEAQQWVSGWRLNADSVLWGGHKVFMVKPEEPFQPVKEATQL [F180W],0.127,0.0619,0.0586,0.0564,,0.0591,,0.0703,0.0551,0.0583,0.0513,0.0858,,,,,
MGESLFKGPRDYNPISSSICHLTNESDGHTTSLYGIGFGPFIITNKHLFRRNNGTLVVQSLHGVFKVKDTTTLQQHLVDGRDMIIIRMPKDFPPFPQKLKFREPQREERICLVTTNFQTKSMSSMVSDTSCTFPSGDGIFWKHWIQTKDGQCGSPLVSTRDGFIVGIHSASNFTNTNNYETSVPKNFMELLTNQEAQQWVSGWRLNADSVLWGGHKVFMVKPEEPFQPVKEATQL [F180E],0.0565,0.0391,0.0527,,,0.0074,0.033,,,,,0.0565,,,,0.0261,0.0481
MGESLFKGPRDYNPISSSICHLTNESDGHTTSLYGIGFGPFIITNKHLFRRNNGTLVVQSLHGVFKVKDTTTLQQHLVDGRDMIIIRMPKDFPPFPQKLKFREPQREERICLVTTNFQTKSMSSMVSDTSCTFPSGDGIFWKHWIQTKDGQCGSPLVSTRDGFIVGIHSASNFTNTNNYFTSVPKNFMELLTNQEAQQWMSGWRLNADSVLWGGHKVFMVKPEEPFQPVKEATQL [V200M],0.0625,,0.0705,0.0713,0.111,0,0.0608,0.0764,0.0577,0.0679,0.0685,0.085,0.0718,0.0604,,0.0647,
MGESLFKGPRDYNPISSSICHLTNESDGHTTSLYGIGFGPFIITNKHLFRRNNGTLVVQSLHGVFKVKDTTTLQQHLVDGRDMIIIRMPKDFPPFPQKLKFREPQREERICLVTTNFQTKSMSSMVSDTSCTFPSGDGIFWKHWIQTKDGQCGSPLVSTRDGFIVGIHSASNFTNTNNYFTSVPKNFMELLTNQEAQCWVSGWRLNADSVLWGGHKVFMVKPEEPFQPVKEATQL [Q198C],0.0609,0.0682,0.0596,,,0.0589,0.0684,0.0667,0.0568,0.0533,0.066,0.102,0.073,,0.0648,0.0818,0.0818
MGESLFKGPRDYNPISSSICHLTNESDGHTTSLYGIGFGPFIITNKHLFRRNNGTLVVQSLHGVFKVKDTTTLQQHLVDGRDMIIIRMPKDFPPFPQKLKFREPQREERICLVTTNFQTKSMSSMVSDTSCTFPSGDGIFWKHWIQTKDGQCGSPLVSTRDGFIVGIHSASNFTNTNNYFTNVPKNFMELLTNQEAQQWVSGWRLNADSVLWGGHKVFMVKPEEPFQPVKEATQL [S182N],0.0505,0.043,0.0473,0.0562,0.0675,0.0561,0.0366,0.078,,,0.0549,0.101,,,,,
MGESLFKGPRDYNPISSSICHLTNESDGHTTSLYGIGFGPFIITNKHLFRRNNGTLVVQSLHGVFKVKDTTTLQQHLVDGRDMIIIRMPKDFPPFPQKLKFREPQREERICLVTTNFQTKSMSSMVSDTSCTFPSGDGIFWKHWIQTKDGQCGSPLVSTRDGFIVGIHSASNMTNTNNYFTSVPKNFMELLTNQEAQQWVSGWRLNADSVLWGGHKVFMVKPEEPFQPVKEATQL [F173M],0.0512,0.0848,0.0597,0.0527,0.182,0.0658,,0.0699,,0.0666,0.0522,0.127,,,0.0756,0.0809,
MGESLFKGPRDYNPISSSICHLTNESDGHTTSLYGIGFGPFIITNKHLFRRNNGTLVVQSLHGVFKVKDTTTLQQHLVDGRDMIIIRMPKDFPPFPQKLKFREPQREERICLVTTNFQTKSMSSMVSDTSCTFPSGDGIFWKHWIQTKDGQCGSPLVSTRDGFIAGIHSASNFTNTNNYFTSVPKNFMELLTNQEAQQWVSGWRLNADSVLWGGHKVFMVKPEEPFQPVKEATQL [V165A],0.0416,0.0582,0.064,0.05,0.0691,0.0552,0.0336,0.0665,0.0319,,0.049,0.0407,,0.0589,0.0457,0.0725,
MGESLFKGPRDYNPISSSICHLTNESDGHTTSLYGIGFGPFIITNKHLFRRNNGTLVVQSLHGVFKVKDTTTLQQHLVDGRDMIIIRMPKDFPPFPQKLKFREPQREERICLVTTNFQTKSMSSMVSDTSCTFPSGDGIFWKHWIQTKDGQCGSPLVSTRDGFIVGIHSASNFTNTNNYFTSVPKNFMELLTNQEAQQCVSGWRLNADSVLWGGHKVFMVKPEEPFQPVKEATQL [W199C],0.0492,0.0642,,0.0527,0.0717,0.0558,0.063,0.0639,0.0502,,0.0584,,0.0568,,0.0816,,0.0636
MGESLFKGPRDYNPISSSICHLTNESDGHTTSLYGIGFGPFIITNKHLFRRNNGTLVVQSLHGVFKVKDTTTLQQHLVDGRDMIIIRMPKDFPPFPQKLKFREPQREERICLVTTNFQTKSMSSMVSDTSCTFPSGDGIFWKHWIQTKDGQCGSPLVSTRDGFIVGIHSASNFTNTNNYFTSVPKNFMALLTNQEAQQWVSGWRLNADSVLWGGHKVFMVKPEEPFQPVKEATQL [E189A],0.108,0.0641,0.0704,,,,,0.0579,0.0696,,,,,0.0518,0.0927,,0.0861
MGESLFKGPRDYNPISSSICHLTNESDGHTTSLYGIGFGPFIITNKHLFRRNNGTLVVQSLHGVFKVKDTTTLQQHLVDGRDMIIIRMPKDFPPFPQKLKFREPQREERICLVTTNFQTKSMSSMVSDTSCTFPSGDGIFWKHWIQTKDGQCGSPLVSTRDGFIVGIHSASNFTNANNYFTSVPKNFMELLTNQEAQQWVSGWRLNADSVLWGGHKVFMVKPEEPFQPVKEATQL [T176A],0.0538,,,0.0606,,0.0517,0.059,0.0713,0.07,0.0692,,0.0571,0.0561,,,0.0597,
MGESLFKGPRDYNPISSSICHLTNESDGHTTSLYGIGFGPFIITNKHLFRRNNGTLVVQSLHGVFKVKDTTTLQQHLVDGRDMIIIRMPKDFPPFPQKLKFREPQREERICLVTTNFQTKSMSSMVSDTSCTFPSGDGIFWKHWIQTKDGQCGSPLVSTRDGFIVGIHSASNFTNTNNYFTSVPKNFMELLTNQEAQQWVSGWRLNPDSVLWGGHKVFMVKPEEPFQPVKEATQL [A207P],0.0604,,,0.0729,0.0625,,,,0.0643,0.0601,0.0749,,0.0694,,,,
MGESLFKGPRDYNPISSSICHLTNESDGHTTSLYGIGFGPFIITNKHLFRRNNGTLVVQSLHGVFKVKDTTTLQQHLVDGRDMIIIRMPKDFPPFPQKLKFREPQREERICLVTTNFQTKSMSSMVSDTSCTFPSGDGIFWKHWIQTKDGQCGSPLVSTRDGFIVGIHSASNFTNTNNYFTSVPKNFMELLTNQEAQQWVSYWRLNADSVLWGGHKVFMVKPEEPFQPVKEATQL [G202Y],0.0585,0.0594,0.0638,0.058,,0.0564,0.0498,,,0.0615,0.0546,0.0754,0.055,0.0608,0.0611,,
